In patent publication EP4736886A1, “METHOD FOR PREPARING ANTIBODY-SMALL MOLECULE DRUG CONJUGATE AND USE THEREOF” (priority 2023, dated 2025):
Residue numbers refer to the chain shown, from its start.

B1: Mutant 22-DXd (conjugate)
heavy: QVQLVESGGGLVQPGGSLRLSCAASGITFPVNAYGWYRQAPGKQRDLVAIISAGGTTNYADSVKGRFTISRDNSKNTLYLQMNSLRAEDTAVYYCYLQRRIGMLRDYWGQGTQVTVSSERKCEECVE[human IgG1 Fc not spelt out]
B2: Mutant 23-DXd (conjugate)
heavy: B1 heavy with E123D, E124D
B3: Mutant 39-DXd (conjugate)
heavy: QVQLVESGGGLVQPGGSLRLSCAASGITFPVNAYGWYRQAPGKQRDLVAIISAGGTTNYADSVKGRFTISRDNSKNTLYLQMNSLRAEDTAVYYCYLQRRIGMLRDYWGQGTQVTVSSERKCDDCVECPPCP[human IgG4 Fc not spelt out]
B4: Mutant 40-DXd (conjugate)
heavy: B3 heavy with D123E, D124E

Tested on: OVCAR-3 cells
Assay: Cell killing assay, cell viability by CellTiter-Glo
Type: cell-based, human
Conditions: 5 days at 37°C; compared to Antibody 1-DXd, FIG. 11
Protocol: OVCAR-3 cells were seeded into a 96-well plate at a density of 5,000 cells per well and cultured overnight at 37°C. Antibody 1-DXd, Mutant 22-DXd, Mutant 23-DXd, Mutant 37-DXd, Mutant 38-DXd, Mutant 39-DXd, and Mutant 40-DXd were serially diluted and added to the 96-well plate containing OVCAR-3 cells, followed by incubation at 37°C for 5 days. Cell viability was measured using CellTiter-Glo (Promega) to evaluate the killing effects of the antibody-drug conjugates.

| Molecule | killing effect on OVCAR-3 cells |
| --- | --- |
| B1 | significantly enhanced killing effect |
| B2 | significantly enhanced killing effect |
| B3 | significantly enhanced killing effect |
| B4 | significantly enhanced killing effect |

Tested on: not listed separately
Assay: Size-exclusion chromatography analysis of aggregate formation
Type: physicochemical
Conditions: DXd conjugates, FIG. 7 and FIG. 9
Protocol: Size-exclusion chromatography analysis was performed. […]
Based on Antibody 3 and Antibody 4, amino acid residues with different properties were inserted between the cysteine residues at positions 4 and 5. Specifically: nonpolar amino acids, exemplified by the insertion of two alanine residues (A); polar uncharged amino acids, exemplified by the insertion of two serine residues (S); basic amino acids, exemplified by the insertion of two lysine residues (K); and acidic amino acids, exemplified by the insertion of two glutamic acid residues (E) or two aspartic acid residues (D), as shown in Table 5. The different mutants were expressed and purified. […]
The different mutants listed in Table 6 were expressed and purified. […] The thermal stability of these ten heavy-chain antibodies was further evaluated using dynamic light scattering (DLS). A DLS (Wyatt) instrument was used to monitor light scattering of the antibodies during heating from 25 °C to 85 °C, thereby determining the aggregation temperature (Tagg) of the antibodies.
VHH1 was separately linked to the engineered human IgG2 Fc or the engineered human IgG4 Fc shown in Table 7 to construct heavy-chain antibodies. After expression and purification, Mutant 37, Mutant 38, Mutant 39, and Mutant 40 were obtained.

| Molecule | size-exclusion chromatography peak profile after conjugation |
| --- | --- |
| B1 | nearly identical to those of corresponding mutants before conjugation |
| B2 | nearly identical to those of corresponding mutants before conjugation |
| B3 | normal |
| B4 | normal |

Tested on: not listed separately
Assay: Hydrophobic interaction chromatography and LC-MS analysis of drug loading
Type: physicochemical
Conditions: after TCEP reduction and conjugation with maleimide-GGFG-DXd
Protocol: Antibody 1 and Antibody 2 were separately incubated with TCEP (Sigma) to reduce and open the disulfide bonds between the two heavy chains, followed by the addition of maleimide-GGFG-DXd (MedChemExpress) for conjugation. The conjugates were then purified using a desalting column to remove excess small-molecule drug.

| Molecule | drug-to-antibody ratio (DAR) value |
| --- | --- |
| B3 | 8 |
| B4 | 8 |
